According to paper PMC4336329 (PLoS ONE, 2015):
The campaign covered roughly 310,000 compounds. About 2,200 (0.71%) showed an effect of 50% or more. Effects have a minus sign here. This is one part of the list.

biological target: human ether-à-go-go-related gene (hERG) potassium channel (human, UniProt Q12809); assay: primary screen, population patch clamp on CHO cells stably expressing hERG
Sequence (Q12809 whole entry, looked up): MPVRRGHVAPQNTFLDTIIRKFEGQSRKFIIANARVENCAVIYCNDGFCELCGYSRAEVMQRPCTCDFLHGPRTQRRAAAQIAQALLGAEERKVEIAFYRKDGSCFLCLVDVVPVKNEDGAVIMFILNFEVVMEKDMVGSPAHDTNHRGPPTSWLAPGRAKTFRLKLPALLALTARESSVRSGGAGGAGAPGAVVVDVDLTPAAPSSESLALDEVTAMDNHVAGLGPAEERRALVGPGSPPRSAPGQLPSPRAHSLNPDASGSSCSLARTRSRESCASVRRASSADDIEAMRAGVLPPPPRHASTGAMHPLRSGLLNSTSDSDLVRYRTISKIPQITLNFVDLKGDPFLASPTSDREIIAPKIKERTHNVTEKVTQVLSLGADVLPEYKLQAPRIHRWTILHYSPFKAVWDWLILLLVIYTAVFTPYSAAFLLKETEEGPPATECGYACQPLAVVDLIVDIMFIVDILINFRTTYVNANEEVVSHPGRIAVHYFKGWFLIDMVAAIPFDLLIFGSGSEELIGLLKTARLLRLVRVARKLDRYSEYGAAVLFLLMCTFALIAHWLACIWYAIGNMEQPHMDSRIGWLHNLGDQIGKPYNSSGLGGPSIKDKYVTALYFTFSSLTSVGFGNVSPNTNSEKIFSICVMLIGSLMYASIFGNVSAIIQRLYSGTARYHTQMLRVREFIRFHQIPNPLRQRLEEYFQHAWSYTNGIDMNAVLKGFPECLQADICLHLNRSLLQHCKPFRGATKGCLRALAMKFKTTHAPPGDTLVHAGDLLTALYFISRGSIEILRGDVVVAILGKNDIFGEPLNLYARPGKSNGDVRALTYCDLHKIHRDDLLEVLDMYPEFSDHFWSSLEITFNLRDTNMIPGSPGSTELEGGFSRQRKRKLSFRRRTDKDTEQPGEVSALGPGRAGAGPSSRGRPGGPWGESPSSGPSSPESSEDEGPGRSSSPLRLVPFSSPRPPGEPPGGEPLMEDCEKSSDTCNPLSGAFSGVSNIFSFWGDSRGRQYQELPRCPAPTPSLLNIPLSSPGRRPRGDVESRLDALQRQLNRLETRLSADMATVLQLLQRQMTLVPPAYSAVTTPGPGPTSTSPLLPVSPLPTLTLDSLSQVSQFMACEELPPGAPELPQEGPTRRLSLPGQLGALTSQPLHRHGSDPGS

Compared with `CC(=O)c1ccc(N2CCN(CC(=O)Nc3ccccc3N3CCOCC3)CC2)cc1`, `O=C(c1n[nH]c(=O)c2ccccc12)N1CCN(c2ccccc2)CC1` is lower in “hERG current change (%, negative = inhibition) at 1uM” value: 23% for the first, 10.1% for the second.

Going from `O=C(Cc1ccccc1)NCc1cccnc1` to `CC(CCc1ccccc1)NC(=O)c1ccccc1F` (centres unmarked), the “hERG current change (%, negative = inhibition) at 1uM” value rises from 7.27% to 8.27%.

Compared with `CCOC(=O)Cn1c(=O)c2c(nc(N3CCOCC3)n2C)n(C)c1=O`, `CCOC(=O)c1ccc(NC(=O)C2CCC(CNc3c(N4CCOCC4)c(=O)c3=O)CC2)cc1` (centres unmarked) is higher in “hERG current change (%, negative = inhibition) at 1uM” value: 3.6% for the first, 11.6% for the second.

First: CCn1nnnc1NCc1ccc(SC)cc1
Second: C=CCn1c(SCC(=O)Nc2cc(NC(C)=O)ccc2OC)nnc1-c1ccccn1
The “hERG current change (%, negative = inhibition) at 1uM” value of the first is higher: 16.1% for the first, 3.51% for the second.

First: O=C(NCCCNC(=O)c1ccc(-c2cc(Cl)ccc2Cl)o1)c1cnccn1
Second: C/C(CC(=O)Nc1ccc(C)c(Cl)c1)=N\NC(=O)Cc1ccccc1
The “hERG current change (%, negative = inhibition) at 1uM” value of the first is higher: 7.84% for the first, 3.51% for the second.

Going from `O=C(Nc1ccc(-c2csc(Nc3ccc(Cl)cc3)n2)cc1)c1cc([N+](=O)[O-])cc(C(F)(F)F)c1` to `COc1ccc(NS(=O)(=O)c2cc(NC(=O)c3cc(=O)c4ccccc4o3)ccc2OC)cc1`, the “hERG current change (%, negative = inhibition) at 1uM” value falls from 12.3% to -4.67%.

Compared with `Cc1cc([N+](=O)[O-])ccc1NC(=O)c1cc2ccccc2o1`, `C=CCOc1ccc2cccc(/C=N/NC(=O)c3cc4cc([N+](=O)[O-])ccc4s3)c2c1` is higher in “hERG current change (%, negative = inhibition) at 1uM” value: 3.19% for the first, 19.3% for the second.

Compared with `Cc1ccc2nc(-c3cccc(Br)c3)cc(C(=O)NC3=NCCS3)c2c1`, `Cc1cccc(NC(=O)NNC(=O)c2cc(-c3ccccc3Cl)nc3ccccc23)c1` is lower in “hERG current change (%, negative = inhibition) at 1uM” value: 17.6% for the first, 1.95% for the second.

Compared with `CC(O)CSc1nc2c(c(=O)[nH]c(=O)n2C)n1Cc1ccccc1Cl` (centres unmarked), `CCCn1c(=O)c(C(=O)NCc2ccco2)c(O)c2ccccc21` is higher in “hERG current change (%, negative = inhibition) at 1uM” value: 6.32% for the first, 11.4% for the second.

First: Cc1sc2ncnc(N3CCCCC3)c2c1C
Second: Cc1nc2ccc(S(=O)(=O)NCC(=O)N3CCCCC3)cc2s1
The “hERG current change (%, negative = inhibition) at 1uM” value of the first is lower: 1.11% for the first, 3.05% for the second.

Compared with `Cc1cc(C)c(NC(=O)CCN2C(=O)c3ccccc3S2(=O)=O)c(C)c1`, `COCCCNC(=O)CN1C(=O)/C(=C\c2ccc(C)cc2)Sc2ccccc21` is lower in “hERG current change (%, negative = inhibition) at 1uM” value: 19.5% for the first, 1.96% for the second.

First: O=S(=O)(c1ccccc1)N1CCN(Cc2cccc(Cl)c2)CC1
Second: N#CCCN1CCN(S(=O)(=O)c2cc(Cl)ccc2Cl)CC1
The “hERG current change (%, negative = inhibition) at 1uM” value of the first is higher: 5.84% for the first, 4.7% for the second.

Going from `COC(=O)CN(c1ccc(C)cc1)S(=O)(=O)c1c(C)[nH]c(=O)[nH]c1=O` to `COC(=O)c1ccc(NS(=O)(=O)c2ccc(Cl)cc2)o1`, the “hERG current change (%, negative = inhibition) at 1uM” value rises from 2.18% to 7.1%.

First: Clc1ccc(Cl)c(OCCN2CCCC2)c1
Second: CCC(=O)Nc1ccc(NC(=O)CN2CCCC(C)C2)c(Cl)c1 (centres unmarked)
The “hERG current change (%, negative = inhibition) at 1uM” value of the first is higher: 1.91% for the first, -1.66% for the second.

Going from `Cn1c2ccccc2c2cnn(CC(=O)Nc3cccc(F)c3)c(=O)c21` to `CCSC1=N/C(=C\c2cccnc2)C(=O)N1c1ccccc1`, the “hERG current change (%, negative = inhibition) at 1uM” value falls from 15.1% to -4.18%.

Going from `Cc1ccsc1/C=N/Nc1ncnc2nc[nH]c12` to `Cc1cccc(-n2ccnc2SCC(=O)Nc2nccs2)c1`, the “hERG current change (%, negative = inhibition) at 1uM” value rises from -2.18% to 2.78%.

Going from `N/C(=N\OC(=O)c1ccc(Cl)cc1Cl)c1cccnc1` to `CN(C)C(=O)c1ccc(Cl)cc1[N+](=O)[O-]`, the “hERG current change (%, negative = inhibition) at 1uM” value rises from 7.99% to 15.2%.

Going from `CCn1cnc2c(Nc3cccc(Cl)c3)nc(C#N)nc21` to `COC(=O)/C(C#N)=C/c1c(Oc2cc(C)cc(C)c2)nc2c(C)cccn2c1=O`, the “hERG current change (%, negative = inhibition) at 1uM” value falls from 13.1% to -0.0649%.

Compared with `Cc1cc(C)n(C(=O)CNC(=O)c2ccc3c(c2)OCCO3)n1`, `O=C(Nc1ccc(F)cc1)Nc1ccc2c(c1)OCO2` is higher in “hERG current change (%, negative = inhibition) at 1uM” value: 5.75% for the first, 9.16% for the second.

First: FC(F)Sc1ccc(NC(=S)NC2CCCCC2)cc1
Second: CCc1c(C(=O)NNC(=S)NC2CCCCC2)csc1C
The “hERG current change (%, negative = inhibition) at 1uM” value of the first is lower: 6.98% for the first, 17.4% for the second.

Compared with `COc1ccc(CCN2CC(C(=O)NCC(=O)Nc3ccc(F)c(F)c3)CC2=O)cc1OC` (centres unmarked), `CN(CC(=O)Nc1c(Cl)cccc1Cl)C(=O)C1CC(=O)N(Cc2ccccc2)C1` (centres unmarked) is higher in “hERG current change (%, negative = inhibition) at 1uM” value: 8.2% for the first, 16.2% for the second.

Going from `CCOc1cc(/C=N/NC(=O)C(N)=O)cc(Br)c1O` to `O=C(NCC1CCCO1)C(=O)N/N=C/c1cc(Cl)ccc1O` (centres unmarked), the “hERG current change (%, negative = inhibition) at 1uM” value falls from 21.6% to 13.1%.

Going from `Cc1ccnc(SCC(=O)NC2CCCCCC2)n1` to `Nc1nc(SCC(=O)NCC2CCCO2)n[nH]1` (centres unmarked), the “hERG current change (%, negative = inhibition) at 1uM” value falls from 9.68% to -0.836%.

Compared with `FC(F)(F)c1cc(-c2cccs2)nc2ncnn12`, `O=c1c2c(nc3nc(Cc4ccccc4)[nH]n13)CCC2` is higher in “hERG current change (%, negative = inhibition) at 1uM” value: 4.2% for the first, 7.88% for the second.

Compared with `Cc1ccc(N(CCO)C(=S)Nc2ccccc2)cc1`, `CCOc1ccc(NC(=O)NCc2ccccn2)cc1` is lower in “hERG current change (%, negative = inhibition) at 1uM” value: 17.1% for the first, 9.72% for the second.

Going from `Cc1ccc(CCNC(=O)c2cccc(N3CCCC3=O)c2)cc1` to `Cc1cc(C(=O)N/N=C/c2c(C)[nH]n(-c3ccccc3)c2=O)n[nH]1`, the “hERG current change (%, negative = inhibition) at 1uM” value falls from 16.4% to 8.92%.

Compared with `NNC(=O)c1sc2nc(N3CCOCC3)c3c(c2c1N)CCCC3`, `COc1ccc(-n2c(N)c(C(=O)NCc3ccco3)sc2=S)cc1` is lower in “hERG current change (%, negative = inhibition) at 1uM” value: 13.7% for the first, 2.96% for the second.

Compared with `CC(C)N1CCC(N2CCN(Cc3cc4c(cc3Cl)OCO4)CC2CCO)CC1` (centres unmarked), `Cc1ccnc(NC(=O)CCC(=O)N(CC(=O)NCc2ccccc2)c2ccc3c(c2)OCO3)c1` is lower in “hERG current change (%, negative = inhibition) at 1uM” value: 6.85% for the first, 2.08% for the second.

Compared with `O=C(COC(=O)C1CC(=O)N(Cc2ccco2)C1)c1ccc(OC(=O)c2ccco2)cc1` (centres unmarked), `Oc1ccc(C2NCc3ccccc3-n3cccc32)cc1Cl` (centres unmarked) is higher in “hERG current change (%, negative = inhibition) at 1uM” value: 3.45% for the first, 4.07% for the second.

For `CCN(CC(=O)NCc1cccs1)C(=O)CCCOc1ccccc1`, the “hERG current change (%, negative = inhibition) at 1uM” value was 0.608%.
